Our source for the Kd, koff and kon values is EP4810513A1 (Genexine, Inc., dated 2026).

In this experiment the target is T1, human SRY-box transcription factor 2 (huSOX2) with C-terminal 6×His-tag, produced by Biointron (human, UniProt P48431).
T1 construct: also called huSOX2 protein; biotinylated huSOX2 (Biointron)
Kind of experiment: SPR (Biacore 8K), sdAb-Fc captured on a Protein A chip, huSOX2 as analyte. For orientation: SPR reads the build-up and loss of mass on a sensor chip optically.

What is called Kd is the equilibrium constant for the complex coming apart. Read a high Kd as weaker binding. Usually koff stands for a measure of how fast the partners let go of each other. Low values mean a long-lived complex, high ones a short-lived complex. What is called kon is a measure of how fast the partners come together. Read a low kon as slow association.

T1 sequence (P48431 other isoform, or with tags, fused parts or gaps limits assumed): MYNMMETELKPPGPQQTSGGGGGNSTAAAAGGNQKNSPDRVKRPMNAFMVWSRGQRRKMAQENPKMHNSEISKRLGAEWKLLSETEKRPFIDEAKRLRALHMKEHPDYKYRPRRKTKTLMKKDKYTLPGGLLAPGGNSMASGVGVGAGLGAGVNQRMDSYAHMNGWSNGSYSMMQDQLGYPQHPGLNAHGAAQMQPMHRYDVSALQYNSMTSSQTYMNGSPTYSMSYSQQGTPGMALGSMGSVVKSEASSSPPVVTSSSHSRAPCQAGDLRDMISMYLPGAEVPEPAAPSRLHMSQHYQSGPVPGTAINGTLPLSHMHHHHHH

B1: 3A2-Fc (sdAb-Fc) (Fc fusion)
chain: [human IgG1 constant region skipped]GGGGSGGGGSGGGGSEVQLVESGGEQVQPGSSLKLSCSVSGLMISGHAMSWVRQVPGAGPEWVAVDNPGGKKNYIDSVAGRFTIARDNDANSLSLVMNGLRPEDTARYFCARVLSFKIYEGDKWALEWDYRGPGTQVTVSS
Regarding B1, binding was characterised by a dissociation constant (Kd) of 2.39 nM, the off-rate constant (koff) was determined as 0.000352 s⁻¹ and the kon was 148000 M⁻¹ s⁻¹.

B2: 3H9-Fc (sdAb-Fc) (Fc fusion)
chain: [human IgG1 constant region skipped]GGGGSGGGGSGGGGSQVQLVESGGEQVQPGSSLKLSCSVSGLMISGHAMSWVRQVPGAGPEWVAVDNPGGKKNYIDSVAGRFTIARDNDANSLSLVMNGLRPEDTARYFCARVLSFKIYGGDKWALEWDYRGPGTQVTVSS
B2 yielded a Kd of 1.06 nM, a koff of 0.000226 s⁻¹ and an on-rate (kon) of 213000 M⁻¹ s⁻¹.

B3: 3F11-Fc (sdAb-Fc) (Fc fusion)
chain: [human IgG1 constant region skipped]GGGGSGGGGSGGGGSDVQLVESGGGLVQPGGSLRLSCATSGFTFSSSTMSWVRQVPGAGPEWVAVDNPGGKKNYIDSVAGRFTIARDNDANSLSLVMNGLRPEDTARYFCARVLSFKIYEGDKWALEWDYRGPGTQVTVSS
notes: Expressed in Expi-CHO-S, purified on Protein A; also called 3F112-Fc
Molecule B3 registered an off-rate (koff) of 0.000541 s⁻¹ and a kon of 175000 M⁻¹ s⁻¹.
